# Assay results published in the supplement of paper PMC8728848.
# Some of the results follow.
# B1: Cohesin-marm-DC-ASGPR-CRD (protein)
# chain: LDITSHHHHHHDDLDAVRIKVDTVNAKPGDTVRIPVRFSGIPSKGIANCDFVYSYDPNVLEIIEIEPGDIIVDPNPDKSFDTAVYPDRKIIVFLFAEDSGTGAYAITKDGVFATIVAKVKEGAPNGLSVIKFVEVGGFANNDLVEQKTQFFDGGVNVGDTTEPATPTTPVTTPTTTDDLDAASCPINWVEHQGSCYWFSRSGKTWPEAERYCQLENTHLVVINSREEQNFVQAHLGSAYTWMGLSDPEGVWKWVDGTDYSSGFQNWKPGQPDDWQGHGLGGGEDCAHFHPDGRWNDDVCQRSYHWVCEAGLTQASQDSH
# Key:
# Test in all cases: glycan array binding signal (z-score within array); higher = stronger binding
# Conditions in all cases: glycan notation: IUPAC condensed, linker removed
# [1] = target: Gal(b1-4)GlcNAc(b1-3)Gal(b1-4)GlcNAc(b1-2)[Gal(b1-4)GlcNAc(b1-3)Gal(b1-4)GlcNAc(b1-6)]Man(a1-6)[Gal(b1-4)GlcNAc(b1-3)Gal(b1-4)GlcNAc(b1-2)Man(a1-3)]Man(b1-4)GlcNAc(b1-4)GlcNAc
# Summary of the method: (§1)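 From the Consortium for Functional Glycomics database, 3228 arrays were curated, keeping only those whose protein sequence was available. Binding is given as a within-array Z-score averaged across arrays sharing a protein sequence and across linkers. Negative Z-scores can be read as non-binding.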
# [2] = target: Gal(b1-4)GlcNAc(b1-3)Gal(b1-4)GlcNAc(b1-2)[Gal(b1-4)GlcNAc(b1-3)Gal(b1-4)GlcNAc(b1-6)]Man(a1-6)[Gal(b1-4)GlcNAc(b1-3)Gal(b1-4)GlcNAc(b1-2)Man(a1-3)]Man(b1-4)GlcNAc(b1-4)[Fuc(a1-6)]GlcNAc
# Summary of the method: as §1
# [3] = target: Gal(b1-4)GlcNAc(b1-3)Gal(b1-4)GlcNAc(b1-3)Gal(b1-4)GlcNAc
# Summary of the method: as §1
# [4] = target: Gal(b1-4)GlcNAc(b1-3)Gal(b1-4)GlcNAc(b1-3)Gal(b1-4)GlcNAc(b1-2)Man(a1-3)[Gal(b1-4)GlcNAc(b1-3)Gal(b1-4)GlcNAc(b1-3)Gal(b1-4)GlcNAc(b1-2)Man(a1-6)]Man(b1-4)GlcNAc(b1-4)GlcNAc
# Summary of the method: as §1
# [5] = target: Gal(b1-4)GlcNAc(b1-3)Gal(b1-4)GlcNAc(b1-3)Gal(b1-4)GlcNAc(b1-2)Man(a1-3)[Gal(b1-4)GlcNAc(b1-3)Gal(b1-4)GlcNAc(b1-3)Gal(b1-4)GlcNAc(b1-2)Man(a1-6)]Man(b1-4)GlcNAc(b1-4)[Fuc(a1-6)]GlcNAc
# Summary of the method: as §1
# [6] = target: Gal(b1-4)GlcNAc(b1-3)Gal(b1-4)GlcNAc(b1-3)Gal(b1-4)GlcNAc(b1-2)[Gal(b1-4)GlcNAc(b1-3)Gal(b1-4)GlcNAc(b1-3)Gal(b1-4)GlcNAc(b1-6)]Man(a1-6)[Gal(b1-4)GlcNAc(b1-3)Gal(b1-4)GlcNAc(b1-3)Gal(b1-4)GlcNAc(b1-2)Man(a1-3)]Man(b1-4)GlcNAc(b1-4)[Fuc(a1-6)]GlcNAc
# Summary of the method: as §1
# [7] = target: Gal(b1-4)GlcNAc(b1-3)Gal(b1-4)GlcNAc(b1-3)Gal(b1-4)GlcNAc(b1-3)Gal(b1-4)GlcNAc(b1-2)Man(a1-3)[Gal(b1-4)GlcNAc(b1-3)Gal(b1-4)GlcNAc(b1-3)Gal(b1-4)GlcNAc(b1-3)Gal(b1-4)GlcNAc(b1-2)Man(a1-6)]Man(b1-4)GlcNAc(b1-4)GlcNAc
# Summary of the method: as §1
# [8] = target: Gal(b1-4)GlcNAc(b1-3)Gal(b1-4)GlcNAc(b1-3)Gal(b1-4)GlcNAc(b1-3)Gal(b1-4)GlcNAc(b1-2)Man(a1-3)[Gal(b1-4)GlcNAc(b1-3)Gal(b1-4)GlcNAc(b1-3)Gal(b1-4)GlcNAc(b1-3)Gal(b1-4)GlcNAc(b1-2)Man(a1-6)]Man(b1-4)GlcNAc(b1-4)[Fuc(a1-6)]GlcNAc
# Summary of the method: as §1
# [9] = target: Gal(b1-4)GlcNAc(b1-3)Gal(b1-4)GlcNAc(b1-3)Gal(b1-4)GlcNAc(b1-3)Gal(b1-4)GlcNAc(b1-2)[Gal(b1-4)GlcNAc(b1-3)Gal(b1-4)GlcNAc(b1-3)Gal(b1-4)GlcNAc(b1-3)Gal(b1-4)GlcNAc(b1-6)]Man(a1-6)[Gal(b1-4)GlcNAc(b1-3)Gal(b1-4)GlcNAc(b1-3)Gal(b1-4)GlcNAc(b1-3)Gal(b1-4)GlcNAc(b1-2)Man(a1-3)]Man(b1-4)GlcNAc(b1-4)[Fuc(a1-6)]GlcNAc
# Summary of the method: as §1
# [10] = target: Gal(b1-4)GlcNAc(b1-3)Gal(b1-4)GlcNAc(b1-3)Gal(b1-4)GlcNAc(b1-3)Gal(b1-4)GlcNAc(b1-3)Gal(b1-4)GlcNAc(b1-2)Man(a1-3)[Gal(b1-4)GlcNAc(b1-3)Gal(b1-4)GlcNAc(b1-3)Gal(b1-4)GlcNAc(b1-3)Gal(b1-4)GlcNAc(b1-3)Gal(b1-4)GlcNAc(b1-2)Man(a1-6)]Man(b1-4)GlcNAc(b1-4)GlcNAc
# Summary of the method: as §1
# [11] = target: Gal(b1-4)GlcNAc(b1-3)Gal(b1-4)GlcNAc(b1-3)Gal(b1-4)GlcNAc(b1-3)Gal(b1-4)GlcNAc(b1-3)Gal(b1-4)GlcNAc(b1-2)Man(a1-3)[Gal(b1-4)GlcNAc(b1-3)Gal(b1-4)GlcNAc(b1-3)Gal(b1-4)GlcNAc(b1-3)Gal(b1-4)GlcNAc(b1-3)Gal(b1-4)GlcNAc(b1-2)Man(a1-6)]Man(b1-4)GlcNAc(b1-4)[Fuc(a1-6)]GlcNAc
# Summary of the method: as §1
# [12] = target: Gal(b1-4)GlcNAc(b1-3)Gal(b1-4)GlcNAc(b1-3)Gal(b1-4)GlcNAc(b1-3)Gal(b1-4)GlcNAc(b1-3)Gal(b1-4)GlcNAc(b1-2)[Gal(b1-4)GlcNAc(b1-3)Gal(b1-4)GlcNAc(b1-3)Gal(b1-4)GlcNAc(b1-3)Gal(b1-4)GlcNAc(b1-3)Gal(b1-4)GlcNAc(b1-6)]Man(a1-6)[Gal(b1-4)GlcNAc(b1-3)Gal(b1-4)GlcNAc(b1-3)Gal(b1-4)GlcNAc(b1-3)Gal(b1-4)GlcNAc(b1-3)Gal(b1-4)GlcNAc(b1-2)Man(a1-3)]Man(b1-4)GlcNAc(b1-4)[Fuc(a1-6)]GlcNAc
# Summary of the method: as §1
# [13] = target: Gal(b1-4)GlcNAc(b1-3)Gal(b1-4)GlcNAc(b1-3)Gal(b1-4)GlcNAc(b1-3)Gal(b1-4)GlcNAc(b1-3)Gal(b1-4)GlcNAc(b1-3)Gal(b1-4)GlcNAc(b1-2)Man(a1-3)[Gal(b1-4)GlcNAc(b1-3)Gal(b1-4)GlcNAc(b1-3)Gal(b1-4)GlcNAc(b1-3)Gal(b1-4)GlcNAc(b1-3)Gal(b1-4)GlcNAc(b1-3)Gal(b1-4)GlcNAc(b1-2)Man(a1-6)]Man(b1-4)GlcNAc(b1-4)GlcNAc
# Summary of the method: as §1
# [14] = target: Gal(b1-4)GlcNAc(b1-3)Gal(b1-4)GlcNAc(b1-3)GalNAc
# Summary of the method: as §1
# [15] = target: Gal(b1-4)GlcNAc(b1-3)Gal(b1-4)GlcNAc(b1-3)[Gal(b1-4)GlcNAc(b1-3)Gal(b1-4)GlcNAc(b1-6)]GalNAc
# Summary of the method: as §1
# [16] = target: Gal(b1-4)GlcNAc(b1-3)Gal(b1-4)GlcNAc(b1-6)[Gal(b1-3)]GalNAc
# Summary of the method: as §1
# [17] = target: Gal(b1-4)GlcNAc(b1-3)Gal(b1-4)[Fuc(a1-3)]GlcNAc(b1-3)Gal(b1-4)[Fuc(a1-3)]GlcNAc
# Summary of the method: as §1
# [18] = target: Gal(b1-4)GlcNAc(b1-3)GalNAc
# Summary of the method: as §1
# [19] = target: Gal(b1-4)GlcNAc(b1-3)[Fuc(a1-3)GlcNAc(b1-6)]Gal(b1-4)Glc
# Summary of the method: as §1
# [20] = target: Gal(b1-4)GlcNAc(b1-3)[Gal(b1-4)GlcNAc(b1-6)]Gal(b1-4)GlcNAc
# Summary of the method: as §1
# [21] = target: Gal(b1-4)GlcNAc(b1-3)[GlcNAc(b1-6)]Gal(b1-4)GlcNAc
# Summary of the method: as §1
# [22] = target: Gal(b1-4)GlcNAc(b1-6)Gal(b1-4)GlcNAc
# Summary of the method: as §1
# [23] = target: Gal(b1-4)GlcNAc(b1-6)GalNAc
# Summary of the method: as §1
# [24] = target: Gal(b1-4)GlcNAc(b1-6)[Gal(b1-3)]GalNAc
# Summary of the method: as §1
# [25] = target: Gal(b1-4)GlcNAc(b1-6)[Gal(b1-4)GlcNAc(b1-3)]GalNAc
# Summary of the method: as §1
# [26] = target: Gal(b1-4)GlcNAc6P
# Summary of the method: as §1
# [27] = target: Gal(b1-6)Gal
# Summary of the method: as §1
# [28] = target: Gal3S(b1-3)GalNAc
# Summary of the method: as §1
# [29] = target: Gal3S(b1-3)GlcNAc
# Summary of the method: as §1
# [30] = target: Gal3S(b1-3)[Fuc(a1-4)]GlcNAc
# Summary of the method: as §1
# [31] = target: Gal3S(b1-4)Glc
# Summary of the method: as §1
# [32] = target: Gal3S(b1-4)Glc6S
# Summary of the method: as §1
# [33] = target: Gal3S(b1-4)GlcNAc
# Summary of the method: as §1
# [34] = target: Gal3S(b1-4)[Fuc(a1-3)]Glc6S
# Summary of the method: as §1
# [35] = target: Gal3S(b1-4)[Fuc(a1-3)]GlcNAc
# Summary of the method: as §1
# [36] = target: Gal3S(b1-4)[Fuc(a1-3)]GlcNAc6S
# Summary of the method: as §1
# [37] = target: Gal3S4S(b1-4)GlcNAc
# Summary of the method: as §1
binder,measurement,setting,value
B1,glycan array binding signal (z-score),[1],0.567
same,glycan array binding signal (z-score),[2],-0.005
same,glycan array binding signal (z-score),[3],-0.431
same,glycan array binding signal (z-score),[4],-0.307
same,glycan array binding signal (z-score),[5],-0.304
same,glycan array binding signal (z-score),[6],-0.244
same,glycan array binding signal (z-score),[7],-0.188
same,glycan array binding signal (z-score),[8],-0.327
same,glycan array binding signal (z-score),[9],-0.321
same,glycan array binding signal (z-score),[10],-0.338
same,glycan array binding signal (z-score),[11],-0.081
same,glycan array binding signal (z-score),[12],-0.14
same,glycan array binding signal (z-score),[13],-0.278
same,glycan array binding signal (z-score),[14],-0.43
same,glycan array binding signal (z-score),[15],-0.367
same,glycan array binding signal (z-score),[16],-0.41
same,glycan array binding signal (z-score),[17],-0.355
same,glycan array binding signal (z-score),[18],-0.449
same,glycan array binding signal (z-score),[19],-0.423
same,glycan array binding signal (z-score),[20],-0.424
same,glycan array binding signal (z-score),[21],-0.447
same,glycan array binding signal (z-score),[22],-0.403
same,glycan array binding signal (z-score),[23],1.25
same,glycan array binding signal (z-score),[24],1
same,glycan array binding signal (z-score),[25],-0.405
same,glycan array binding signal (z-score),[26],-0.439
same,glycan array binding signal (z-score),[27],-0.4
same,glycan array binding signal (z-score),[28],-0.397
same,glycan array binding signal (z-score),[29],-0.393
same,glycan array binding signal (z-score),[30],-0.408
same,glycan array binding signal (z-score),[31],0.089
same,glycan array binding signal (z-score),[32],-0.23
same,glycan array binding signal (z-score),[33],-0.385
same,glycan array binding signal (z-score),[34],-0.395
same,glycan array binding signal (z-score),[35],-0.433
same,glycan array binding signal (z-score),[36],-0.069
same,glycan array binding signal (z-score),[37],-0.425
